Target: protein A sepharose (Pierce) (UniProt P38507)
Experiment: incubation with protein A sepharose, SDS-PAGE and Coomassie

B1: recombinant hIL6 (ligand)
chain: not shown
binding result: no binding
